# Measured values published in the supplement of paper PMC3334620.
# The full ranking holds about 33,000 sequences; the median of “E-score (-0.5 to 0.5)” is about -0.035, and the highest 2% start at about 0.35. The list shows a part of the results.
# Target: T1, Pdr3 (UniProt P33200)
# T1 sequence: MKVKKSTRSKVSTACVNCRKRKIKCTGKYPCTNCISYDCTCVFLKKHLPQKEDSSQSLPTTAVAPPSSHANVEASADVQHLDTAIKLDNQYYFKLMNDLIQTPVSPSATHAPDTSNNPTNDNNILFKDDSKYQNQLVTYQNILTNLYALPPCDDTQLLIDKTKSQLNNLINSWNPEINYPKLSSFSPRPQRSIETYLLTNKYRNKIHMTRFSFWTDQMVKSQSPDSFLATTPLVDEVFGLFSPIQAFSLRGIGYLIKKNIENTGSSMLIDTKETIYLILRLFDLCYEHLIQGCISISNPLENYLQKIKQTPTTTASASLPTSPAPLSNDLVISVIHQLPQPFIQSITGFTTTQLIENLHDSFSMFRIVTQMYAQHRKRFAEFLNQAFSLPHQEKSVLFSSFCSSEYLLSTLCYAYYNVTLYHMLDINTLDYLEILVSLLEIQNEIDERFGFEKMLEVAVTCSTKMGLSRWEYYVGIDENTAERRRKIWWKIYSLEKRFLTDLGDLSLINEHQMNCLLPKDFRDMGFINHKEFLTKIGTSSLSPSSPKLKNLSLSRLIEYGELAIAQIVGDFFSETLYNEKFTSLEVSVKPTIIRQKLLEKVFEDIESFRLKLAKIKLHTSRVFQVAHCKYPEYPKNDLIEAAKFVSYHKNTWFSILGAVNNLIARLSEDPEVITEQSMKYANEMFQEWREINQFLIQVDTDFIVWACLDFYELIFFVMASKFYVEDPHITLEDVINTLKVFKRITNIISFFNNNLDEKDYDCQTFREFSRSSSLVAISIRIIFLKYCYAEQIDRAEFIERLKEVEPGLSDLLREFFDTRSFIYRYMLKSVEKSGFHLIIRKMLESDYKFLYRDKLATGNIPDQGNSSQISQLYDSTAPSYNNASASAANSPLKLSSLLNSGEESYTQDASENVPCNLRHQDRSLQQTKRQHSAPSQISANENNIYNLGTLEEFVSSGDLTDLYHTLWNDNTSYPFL
# Assay: PBM E-score (8-mer binding enrichment) (E-score (-0.5 to 0.5)); higher = stronger / more preferred TF binding; most listed sequences are background and not binding sites
# Details: protein concentration: 200 nM; construct: GST-full length
# Procedure, shortened: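 For each ungapped eight-base word taken together with its reverse complement, the Universal PBM Analysis Suite assigned an E-score. Binding data came from GST-tagged yeast transcription factors, applied at about 100-200 nM, on universal all-10-mer Agilent arrays made double-stranded by primer extension. Fluorescent anti-GST marked bound protein, and scans were normalised with masliner.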
row,Sequence,PBM E-score
1,AGCCCCTG,-0.279
2,AGTGCCCG,0.117
3,CTGCGCTC,-0.181
4,ACGCGTCT,-0.126
5,GACGTCAA,-0.155
6,AGATTTTC,-0.0096
7,CGTCAGAC,-0.0654
8,AACGGCGC,0.174
9,GTCTTTTA,-0.192
10,CGTCCGAA,0.208
11,CACGGCAG,0.141
12,AACGTAAA,-0.0445
13,ATGATGTG,0.0436
14,ATAGGTCC,0.153
15,CTACAGCC,-0.129
16,CTAGGAAC,-0.0409
17,AAAACTGC,-0.0767
18,AACCGTTG,0.00312
19,CGTGGACA,0.108
20,ACGGTCGA,0.0411
21,CGCATGCG,0.0897
22,ACAGGGCC,0.0906
23,GCACGGGC,0.105
24,ATCTTTTA,-0.0573
25,AAAGCCGT,0.0407

row,Sequence,PBM E-score
1,CTGAATGA,-0.00634
2,CTGGATTC,0.105
3,ACTTCCTC,-0.167
4,CAGCCCTG,-0.246
5,AAGACAAA,-0.103
6,CAGCGGAC,0.176
7,TAAAGGTA,-0.168
8,CTTTGATC,-0.0821
9,CACTAAAG,-0.151
10,ATACCTCA,-0.0978
11,ATTACAAC,-0.0764
12,CGCAACAG,0.0606
13,CCCACTTA,-0.0239
14,CCAGATCG,-0.0299
15,ATTTTCAA,-0.0356
16,ACATAGAA,0.0158
17,AGCTGCCA,-0.00127
18,CAAACTAC,-0.156
19,GCTCCCAC,-0.0728
20,CGTTCCGC,0.453
21,CAACTGTA,-0.119
22,CCACTTCG,0.0645
23,ATTGTTTC,0.246
24,ATGTCAGG,-0.127
25,CCCGAGGA,0.156

row,Sequence,PBM E-score
1,CACCTAAC,-0.0279
2,CTGGTTTA,-0.265
3,TCTCGACA,-0.0593
4,AGTACACA,0.0616
5,GCTTTCGA,-0.151
6,CAGCTACC,-0.0514
7,ATTGCTCA,-0.0859
8,CAATCCGG,0.394
9,ATTTGCTC,0.00972
10,AGATTGTG,-0.152
11,CGACGCAG,-0.0882
12,TCCCGTAA,0.0877
13,AGAGAAAG,-0.168
14,AACAGCTG,-0.14
15,AACTGCAC,-0.0261
16,GCTGAAGA,-0.106
17,ACAGGCGT,-0.281
18,ATCTTTAA,-0.0842
19,ACTTATAT,0.0781
20,AGGGGCGC,0.0517
21,AAGGAGCC,-0.14
22,AAACTTTC,-0.0276
23,CCATGCTC,-0.114
24,CTCTGTGC,-0.0885
25,CAAAAGAA,0.0442

row,Sequence,PBM E-score
1,CAAGATTA,0.0526
2,CTTGTCTC,-0.0638
3,AAAGCCCC,-0.0366
4,CAAAGCAG,-0.0327
5,AGGAGGAG,-0.247
6,CTTTGATA,-0.0365
7,CGGTGTTC,0.149
8,GGTACGAA,-0.0407
9,AGGCGAAT,-0.124
10,GCTCACAC,-0.172
11,GAGATGCA,-0.0746
12,ATGCTGGG,-0.0137
13,AATTTACG,0.0921
14,ACCAGTCG,-0.0214
15,AAGTCGGC,-0.0254
16,CAGAGAAA,-0.0892
17,ATCGTGTC,0.151
18,ACGTGAGG,-0.0596
19,ATTAATGA,0.117
20,ATCAGAGG,-0.207
21,AAACAATC,0.0659
22,CAATCCCA,-0.105
23,ATACATGG,-0.00278
24,CGCTTGAA,0.131
25,GATTGCCA,0.0763

row,Sequence,PBM E-score
1,AACCAAAT,0.15
2,CTGCGTTA,-0.127
3,GCATGACA,-0.105
4,ATAGACAT,-0.268
5,CTTCGGCC,0.0859
6,GGAGACCC,-0.0125
7,GGCTGTGA,-0.173
8,GAGCAACC,-0.0309
9,ATTAGACG,-0.0456
10,ATTGAATA,0.0411
11,CGAACGGC,0.177
12,ATTATGAG,-0.168
13,ATCCACAG,0.00018
14,AGTCTTCA,-0.23
15,AGTAGGGG,0.142
16,AACGAGGC,-0.0717
17,AAAGTTGT,0.123
18,AGGTCGGA,0.265
19,TGCTTAAA,-0.0433
20,GCCCTTCA,-0.183
21,CATGTATC,-0.0104
22,CGGTATCA,0.166
23,CCAACGGG,0.213
24,GACGTCCC,0.0169
25,AGAACATG,-0.0666

row,Sequence,PBM E-score
1,CGGCTGCC,0.25
2,AGGATGTG,-0.09
3,ACGGGCCG,0.0755
4,TCCAGTCA,-0.103
5,GATTTAGC,0.00489
6,TAAACCAA,-0.263
7,ATTTACTC,-0.0415
8,AGCGTAAT,-0.0873
9,GAGTCTTA,-0.308
10,GGTCTCCA,-0.156
11,AATTACGA,-0.0333
12,CCTTGACG,-0.0381
13,CACAAGGG,-0.214
14,AGGTGGCC,-0.0873
15,ATAAGTAG,-0.147
16,AGTGGGAC,-0.0707
17,ACACAGGT,-0.241
18,CTTATCTA,-0.09
19,ATGCGAAA,0.0602
20,CCTTCCAG,-0.256
21,GGCCCGCA,0.163
22,AGATGCCA,-0.138
23,AATGAAGA,0.0481
24,AGAGCGTG,0.0318
25,CCATGACC,-0.162

row,Sequence,PBM E-score
1,AGCCGCGC,0.236
2,CCTAGTTC,0.00624
3,CAATGCGG,0.0978
4,AAGTATAG,-0.144
5,CACTAGGG,-0.187
6,GGACACAC,0.225
7,AGTACAAC,0.0179
8,ACTCAGGG,-0.112
9,CGAGCGCG,0.273
10,CACACCAA,0.0361
11,GCCACCAA,-0.0361
12,ATGTCATA,0.0201
13,GTTCTAGA,-0.0376
14,CTGCTCCA,-0.0375
15,AGCTTTTG,-0.264
16,TCGTCGAA,-0.36
17,ACTCGTCG,-0.144
18,TATTTTCA,0.109
19,AGCTACCT,0.0102
20,TCTGGGAA,-0.101
21,ATTGCGAG,0.0487
22,AATCGACA,0.169
